This is one part of the list. Sequences were assembled here from the parent chain. Values near 0.05 are background.
B1: TEV protease; numbered along this chain (parent)
chain: MGESLFKGPRDYNPISSSICHLTNESDGHTTSLYGIGFGPFIITNKHLFRRNNGTLVVQSLHGVFKVKDTTTLQQHLVDGRDMIIIRMPKDFPPFPQKLKFREPQREERICLVTTNFQTKSMSSMVSDTSCTFPSGDGIFWKHWIQTKDGQCGSPLVSTRDGFIVGIHSASNFTNTNNYFTSVPKNFMELLTNQEAQQWVSGWRLNADSVLWGGHKVFMVKPEEPFQPVKEATQL

Variants of: B1
Assay: raw area under fraction-flipped curve 0-4 h after induction (AUC4h, not background-subtracted), DNA-recorder readout of cleavage of the substrate (dimensionless); higher = more cleavage of the substrate by the protease variant
Settings: temperature: 34 °C; time window: 0-4 h after rhamnose induction
Procedure: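 In vivo DNA recorder in E. coli TOP10(DE3) ΔrhaA at 34 °C. Each TEVp single-site mutant (parent TEVp 0) is paired with a single-site variant of the 7-mer TEVs (canonical ENLYFQ|S). The substrate sits between flexible linkers in a Bxb1-sfGFP-TEVs-SsrA fusion, so cleavage stabilises Bxb1 and speeds flipping of a recombination array, read by NGS. The value is the raw area under the fraction-flipped curve over 0-4 h after rhamnose induction (AUC4h), with ≥20 reads per time point. It is not background-subtracted; inactive controls average about 0.047.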
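Note: Bxb1 expression induced with 0.2% (w/v) L-rhamnose at OD600 near 0.5, cultures sampled hourly, flipped fraction per protease–substrate barcode pair counted by paired-end Illumina sequencing.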

Variant	area with substrate ANLYFQS	area with substrate CNLYFQS	area with substrate DNLYFQS	area with substrate HNLYFQS	area with substrate INLYFQS	area with substrate KNLYFQS	area with substrate MNLYFQS	area with substrate NNLYFQS	area with substrate PNLYFQS	area with substrate RNLYFQS	area with substrate SNLYFQS	area with substrate TNLYFQS	area with substrate WNLYFQS	area with substrate YNLYFQS	area with substrate FNLYFQS	area with substrate GNLYFQS	area with substrate QNLYFQS	area with substrate LNLYFQS	area with substrate VNLYFQS
MGESLFKGPRDYNPISSSICHLTNESDGHTTSLYGIGFGPFIITNKHLFRRNNGTLVVQSLHGVFKVKDTTTLQQHLVDGRDMIIIRMPKDFPPFNQKLKFREPQREERICLVTTNFQTKSMSSMVSDTSCTFPSGDGIFWKHWIQTKDGQCGSPLVSTRDGFIVGIHSASNFTNTNNYFTSVPKNFMELLTNQEAQQWVSGWRLNADSVLWGGHKVFMVKPEEPFQPVKEATQL [P96N]	0.0651	0.0745	0.123	0.066	0.0591	0.0606	0.0646	0.0589	0.067	0.0728	0.0591	0.0609	0.05	0.0567					
MGESLFKGPRDYNPISSSICHLTNESDGHTTSLYGIGFGPFIITNKHLFRRNNGTLVVQSLHGVFKVKDTTTLQQHLVDGRDMIIIRMPKDFPPFPQKLKFRGPQREERICLVTTNFQTKSMSSMVSDTSCTFPSGDGIFWKHWIQTKDGQCGSPLVSTRDGFIVGIHSASNFTNTNNYFTSVPKNFMELLTNQEAQQWVSGWRLNADSVLWGGHKVFMVKPEEPFQPVKEATQL [E103G]	0.0075	0.0693	0.0874	0.0644	0.0661	0.073	0.0658	0.0637	0.0549			0.0707	0.0588	0.06	0.0612	0.074	0.0663		
MGESLFKGPRDYNPISSSICHLTNESDGHTTSLYGIGFGPFIITNKHLFRRNNGTLVVQSLHGVFKVKDTTTLQQHLVDGRDMIIIRMPKDFPPFPQKLKFREFQREERICLVTTNFQTKSMSSMVSDTSCTFPSGDGIFWKHWIQTKDGQCGSPLVSTRDGFIVGIHSASNFTNTNNYFTSVPKNFMELLTNQEAQQWVSGWRLNADSVLWGGHKVFMVKPEEPFQPVKEATQL [P104F]	0.0658						0.0486	0.062					0.0411					0.0523	
MGESLFKGPRDYNPISSSICHLTNESDGHTTSLYGIGFGPFIITNKHLFRRNNGTLVVQSLHGVFKVKDTTTLQQHLVDGRDMIIIRMPKDFPPFPQKLKFREIQREERICLVTTNFQTKSMSSMVSDTSCTFPSGDGIFWKHWIQTKDGQCGSPLVSTRDGFIVGIHSASNFTNTNNYFTSVPKNFMELLTNQEAQQWVSGWRLNADSVLWGGHKVFMVKPEEPFQPVKEATQL [P104I]	0.0624		0.0601	0.0698	0.0529	0.106	0.0574		0.0528	0.0591	0.0452	0.0599	0.0642	0.0584	0.0739	0.0556		0.0555	0.0867
MGESLFKGPRDYNPISSSICHLTNESDGHTTSLYGIGFGPFIITNKHLFRRNNGTLVVQSLHGVFKVKDTTTLQQHLVDGRDMIIIRMPKDFPPFPQKLKFREWQREERICLVTTNFQTKSMSSMVSDTSCTFPSGDGIFWKHWIQTKDGQCGSPLVSTRDGFIVGIHSASNFTNTNNYFTSVPKNFMELLTNQEAQQWVSGWRLNADSVLWGGHKVFMVKPEEPFQPVKEATQL [P104W]	0.0511	0.0413		0.0501		0.045			0.0522		0.0312	0.036	0.0483	0.0525	0.05	0.0682			0.054
MGESLFKGPRDYNPISSSICHLTNESDGHTTSLYGIGFGPFIITNKHLFRRNNGTLVVQSLHGVFKVKDTTTLQQHLVDGRDMIIIRMPKDFPPFPQKLKFREPFREERICLVTTNFQTKSMSSMVSDTSCTFPSGDGIFWKHWIQTKDGQCGSPLVSTRDGFIVGIHSASNFTNTNNYFTSVPKNFMELLTNQEAQQWVSGWRLNADSVLWGGHKVFMVKPEEPFQPVKEATQL [Q105F]	0.0646	0.0693	0.0466	0.0487		0.0608	0.0716		0.0683		0.0538	0.068		0.0567					
MGESLFKGPRDYNPISSSICHLTNESDGHTTSLYGIGFGPFIITNKHLFRRNNGTLVVQSLHGVFKVKDTTTLQQHLVDGRDMIIIRMPKDFPPFPQKLKFREPWREERICLVTTNFQTKSMSSMVSDTSCTFPSGDGIFWKHWIQTKDGQCGSPLVSTRDGFIVGIHSASNFTNTNNYFTSVPKNFMELLTNQEAQQWVSGWRLNADSVLWGGHKVFMVKPEEPFQPVKEATQL [Q105W]	0.063	0.0686	0.0782	0.0637	0.0651	0.0785	0.0576	0.069	0.0664		0.0599	0.0635	0.0543			0.0713		0.0661	0.071
MGESLFKGPRDYNPISSSICHLTNESDGHTTSLYGIGFGPFIITNKHLFRRNNGTLVVQSLHGVFKVKDTTTLQQHLVDGRDMIIIRMPKDFPPFPQKLKFREPQDEERICLVTTNFQTKSMSSMVSDTSCTFPSGDGIFWKHWIQTKDGQCGSPLVSTRDGFIVGIHSASNFTNTNNYFTSVPKNFMELLTNQEAQQWVSGWRLNADSVLWGGHKVFMVKPEEPFQPVKEATQL [R106D]	0.0788	0.0673	0.0694	0.0818				0.0629	0.087		0.0819	0.064	0.0607	0.0595	0.0581	0.0656		0.0585	0.0733
MGESLFKGPRDYNPISSSICHLTNESDGHTTSLYGIGFGPFIITNKHLFRRNNGTLVVQSLHGVFKVKDTTTLQQHLVDGRDMIIIRMPKDFPPFPQKLKFREPQREERICCVTTNFQTKSMSSMVSDTSCTFPSGDGIFWKHWIQTKDGQCGSPLVSTRDGFIVGIHSASNFTNTNNYFTSVPKNFMELLTNQEAQQWVSGWRLNADSVLWGGHKVFMVKPEEPFQPVKEATQL [L112C]	0.0617	0.0454	0.0762	0.0466		0.0885		0.0691	0.0665		0.0617	0.0531	0.0576	0.0659	0.0629	0.0683		0.0714	

Reference: the supplement of paper PMC12217912
